# Reference: PubChem BioAssay (NCI)
# Several values for one entry are separate records, joined by “and”; a condition that tells them apart may be missing. Equal values may be shown once.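 Grown in 96-well plates, cells were treated for 48 hours with each compound at five concentrations. Insufficient inhibition: endpoint recorded as highest concentration tested. At the GI50, growth is halved. TGI is the concentration that stops growth completely.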
# Tested on: NCI-H322M lung
# Experiment: NCI-60 cell line screen, 48 h
Compound,TGI,GI50
COC(=O)/C=C(/C)n1nc2ccccc2n1,> 100 µM,–
Nc1ccnc(=O)[nH]1,> 100 µM,–
CCC[CH2][Sn]1([CH2]CCC)[O]C(=O)c2cccnc2[O]1,23.9 µM,11.7 µM
NC(N)=N/N=C/c1c(-c2ccc(Cl)cc2)nc2sccn12,9.98 µM,–
CCCCOC(=O)C1C2CCC(O2)C1C(=O)OCCCC (stereo unspecified),> 100 µM,–
COc1ccc(-c2c[nH]c(C(=O)O)c2-c2cc(OC)c(OC)c(OC)c2)cc1,> 100 µM,5.42 µM
Cn1c2ccccc2n2c(N=O)c(-c3ccccc3)nc12,61.3 µM,–
OC(c1ccccc1)(c1ccccc1)c1ccncc1,> 100 µM,–
CCOC(=O)NC(=O)c1cn(CCOC(=O)CCCCCCCCC(=O)OCCn2cc(C(=O)NC(=O)OCC)c(=O)[nH]c2=O)c(=O)[nH]c1=O,> 100 µM,–
CCOc1cc(NC(C)=O)ccc1C(=O)NN1C(=O)C(Cl)C1c1ccccc1 (stereo unspecified),27.1 µM,–
Cn1cc(C(=O)NCCC(=N)N)cc1NC(=O)C1=[N+](C)C=C(NC(=O)c2cccc(C(=O)NC3=CC(C(=O)Nc4cc(C(=O)NCCC(=N)N)cn4C)=[N+](C)C3)c2)C1,> 100 µM,–
CC(C)(C)n1cc(-c2ccnc(NCCCNS(=O)(=O)c3ccc(C(F)(F)F)cc3)c2)c(-c2cccc(O)c2)n1,4.06 µM,2.07 µM
COc1ccc(-c2c(C#N)c(N)n(C3OCC(OC(C)=O)C(OC(C)=O)C3OC(C)=O)c(=S)c2C#N)cc1 (stereo unspecified),> 100 µM,–
CCC(C)(CC(C)(C)C(=O)NCC(=O)NC(Cc1ccccc1)C(=O)NC(Cc1ccccc1)C(=O)NCC(=O)NC1CC(OC2CC(O)(C(=O)CO)Cc3c(O)c4c(c(O)c32)C(=O)c2c(OC)cccc2C4=O)OC(C)C1O)C(=O)NCC(C)O (stereo unspecified),> 150 µg/mL,> 150 µg/mL
CCOC(=O)C1=C(C)OC2(O)C=CC(O)=C3C(=O)N(c4ccccc4)C(=O)C312 (stereo unspecified),> 100 µM,–
COc1ccc(-c2cn(-c3cc(OC)c(OC)c(OC)c3)c(SCc3ccccc3)n2)cc1OC,> 100 µM,> 100 µM
CC(C)(C)OC(=O)N1CCN(CCn2cc(C(F)(F)F)c3c(Cl)ncnc32)CC1,3.77 µM,1.87 µM
CC/C=C1/C(=O)C=C[C@@H]1C/C=C\CCCC(=O)OC,21.3 µM,7.3 µM
CCOC(CN(C)C(=O)Nc1cccc2ccccc12)OCC,> 10 µM,–
COc1ccc(Br)c(N/N=C2\CCCNC2=O)c1,> 100 µM,–
O=c1c2c(oc3ccccc13)-c1ccccc1OC2,> 100 µM,–
Cc1ccc2nc(NC(=O)C(=O)C(C#N)c3nc4ccccc4s3)sc2c1 (stereo unspecified),> 100 µM,–
Cc1cc(O)c(C(C)C)cc1S(=O)(=O)O (tested in a mixture with another compound),> 100 µM and 14.8 µM,1.23 µM
O=C([CH-]C(=O)c1ccccc1)c1ccccc1.O=C([CH-]C(=O)c1ccccc1)c1ccccc1.[La+3].[OH-].[OH3+],65.1 µM,17.9 µM
Cc1cc(=O)[nH]c(-n2[nH]c(C)c(CCO)c2=O)n1,> 100 µM,–

Compound,TGI,GI50
C#Cc1c(F)ccc2cc(O)cc(-c3ncc4c(N5CC6CCC(C5)N6)nc(OC[C@@]56CCCN5C[C@H](F)C6)nc4c3F)c12,40.9 µM,11.9 µM
CN[C@@H](C)C(=O)N[C@H](C(=O)N1CCC[C@H]1C(=O)Nc1snnc1-c1ccccc1)C1CCCCC1,> 100 µM,59 µM
COc1cc(O)c2c(=O)cc(-c3ccc(O)cc3O)oc2c1CC=C(C)C,38.3 µM,–
O=[N+]([O-])/C(C(Cl)=C(Cl)Cl)=C(\N1CCOCC1)n1nnc2ccccc21,30.5 µM,–
O=C1/C(=C\c2ccc(O)cc2)CCC/C1=C/c1ccc(Cl)c(Cl)c1,17.7 µM,–
COc1cc([N+](=O)[O-])c(OC)cc1-c1nc2sc(Cl)cn2c1/C(N)=N/C(=N)N,10.8 µM,3 µM
Cc1ccc(Nc2n[nH]c(=S)s2)cc1C,> 100 µM,–
Cc1ccc2c(c1)[nH]c(=S)n2/C=C1\C(=O)Oc2ccccc2C1=O,> 100 µM,–
CC1CCC(NC(=O)N(CCCl)N=O)CC1 (stereo unspecified),151 µM,–
Cn1c2ccccc2c2c(-c3ccccc3)cc3c(c21)C(=O)C=CC3=O,> 10 µM,–
NC(=O)N/N=C(\CC1OC(=O)c2ccccc21)c1ccco1 (stereo unspecified),> 100 µM,–
COCCOC(=O)c1c(C)n([O-])c2cc(Cl)c(Cl)cc2[n+]1=O,69.7 µM,–
C=CCNC1=C2C[C@@H](C)C[C@@H](OC)[C@H](OC(=O)CCN)[C@H](C)/C=C(\C)[C@@H](OC(N)=O)[C@H](OC)/C=C\C=C(/C)C(=O)NC(=CC1=O)C2=O,20.3 µM,–
COc1ccc2n[se]nc2c1,> 100 µM,–
CCS(CC)(CC)CC1CCCC2=CCC(P(=O)(c3ccccc3)c3ccccc3)CC21 (stereo unspecified),24.4 µM,–
CCOP(=O)(OCC)/C(C#N)=C/c1ncc[nH]1,> 100 µM,–
COC1(OC)c2no[n+]([O-])c2CCC1O (stereo unspecified),> 100 µM,–
O=C(ON=C1c2ccccc2C(Br)C(Br)c2ccccc21)c1cc([N+](=O)[O-])cc([N+](=O)[O-])c1 (stereo unspecified),52.2 µM,–
Cn1cc2ccccc2c1-c1nc(F)nc(F)n1,> 100 µM,–
N#Cc1c(N)nc(-c2ccc(Cl)cc2)c2c1-c1ccccc1S(=O)(=O)CC2,> 100 µM,–
CC1C2(C)OC(=N)C(C#N)(C(c3ccccc3)O2)C1(C#N)C#N (stereo unspecified),> 100 µM,–
COc1ccc2c3c1O[C@]1(C)C34CCN(C)C(C2)C42C=C[C@@]1(OC)c1c(O)ccc(O)c12,> 100 µM,–
Nc1ncnn2c(C3OC(CO)C(O)C3O)ccc12 (stereo unspecified),0.595 µM,–
COc1cc(C[C@H]2c3cc(OC)c(OC)cc3CCN2C)c(Oc2cc3c(cc2OC)-c2c(OC)c(OC)cc4c2[C@H](C3)N(C)CC4)cc1OC,20.5 µM and 28.3 µM,14.7 µM
COc1ccc(C2=CC(c3ccc4c(c3)OCO4)c3c(c4ccccc4oc3=O)O2)cc1OC (stereo unspecified),> 100 µM,–

Compound,TGI,GI50
N#CC(NC12CC3CC(CC(C3)C1)C2)c1ccc2c(c1)OCO2 (stereo unspecified),> 100 µM,–
C=C1C(=O)O[C@H]2[C@H]1CC/C(COC(=O)NCc1ccc(Cn3c(=O)sn(CCCl)c3=O)cc1)=C\CC[C@@]1(C)O[C@@H]21,28.4 µM,14.7 µM
Clc1ccc(NCc2nnc(CCCCCCCCc3nnc(CNc4ccc(Cl)cc4)o3)o2)cc1,> 100 µM,–
COC(=O)[C@@H]1CN(C(C)=O)C(=O)N1,> 100 µM,–
COc1ccc(/C(COc2ccc3c(=O)cc(-c4ccccc4)oc3c2)=N\O)cc1,24.5 µM,5.56 µM
Clc1ccc(C2SCc3nc4ccccc4n32)c(Cl)c1 (stereo unspecified),25.9 µM,–
CC(C)C1CC[C@@H](C)C[C@@]1(O)CC(N)=O (stereo partly specified),> 100 µM,–
C=CCNC(=O)NC(=O)CSC1=NNC2(C(=O)N1)c1ccccc1-c1ccccc12,> 10 µM,–
CNC1=C(C)C(=O)C(=O)C([C@H](C)CCC=C(C)C)=C1O,> 100 µM,–
NC1=C(NC(=O)Cc2ccc(F)cc2)C(=O)c2ccccc2C1=O,> 100 µM,–
Oc1c(C(Nc2cccc3cccnc23)c2ccccc2)ccc2cccnc12 (stereo unspecified),> 100 µM,–
O=C(c1cccs1)N(C(=S)N1CCN(c2ccccn2)CC1)c1ccccc1,75.8 µM,–
Cc1nc2ccccc2n1COC(Cn1ccnc1)c1ccc(Cl)cc1Cl (stereo unspecified),> 100 µM,–
CCC1C2Cc3ccc(O)cc3C1(CC)CCN2C (stereo unspecified),> 100 µM,–
CC[C@]1(Cc2ccc(OC)c(OC)c2)C=[N+]([O-])O[C@H](OC2CCCC2(c2ccccc2)c2ccccc2)[C@@H]1OC(=O)c1ccccc1 (stereo partly specified),> 58.2 µM,–
COC(=O)c1ccc(C)cc1CC1Cc2cc(C)ccc2C1=O (stereo unspecified),> 100 µM,–
C[C@H]1[C@H](C)CC[C@]2(CO)CC[C@]3(C)C(=CC[C@@H]4[C@@]5(C)CCCNC(C)(C)[C@@H]5CC[C@]43C)[C@H]12,3.19 µM,1.73 µM
CCCCCCCCCCCCCCCCCCNC(=O)C(N)Cc1ccc(OCc2ccccc2)cn1 (stereo unspecified),42.8 µM,–
O=C(O)c1cc([N+](=O)[O-])cc2c(=O)c3cnccc3[nH]c12,> 100 µM,–
C=C1CCC2C3(C)COC(c4ccc(N(C)C)cc4)OC3CCC2(C)C1C/C=C1/C(=O)OCC1O (stereo unspecified),23.2 µM,9.18 µM
O=C1C(Cl)C2(CC(/C=C/c3ccccc3Cl)=NN2c2cccc(S(=O)(=O)O)c2)N1c1nc2ccccc2s1 (stereo unspecified),> 100 µM,–
O=C1/C(=C/c2cccc(F)c2)CCCc2ccccc21,35.9 µM,–
CN(O)c1nc(N(C)O)nc(N2CCOCC2)n1,> 100 µM,2.92 µM
C(=C\c1cccs1)/c1cccc(/C=C/c2cccs2)n1,> 100 µM,–
O=C(O)CNC(=O)c1ccc(-c2ccccc2)cc1,> 100 µM,–

Compound,TGI,GI50
O=C1CCCCC/C1=C\c1cccc(Cl)c1,> 100 µM,–
O=C(O)c1nc2cc(C(F)(F)F)ccc2nc1Nc1ccc(F)cc1,> 100 µM,–
c1ccc2c(c1)cc(C1NCCc3[nH]cnc31)c1ccccc12 (stereo unspecified),> 100 µM,–
CSc1nc(C#N)c(/N=C\N(C)C)n1C,> 100 µM,–
C=C(C)C(=O)O[C@H]1CC(=C)[C@@H]2C[C@H](O)[C@](O)(CCl)[C@@H]2[C@H]2OC(=O)C(=C)[C@@H]21,24.4 µM,11.6 µM
Cc1cc2c(cc1C)N(C(=O)CCl)CC(=O)N2,21.7 µM,9.31 µM
CC(C)[C@H](N)C(=O)N1CCC[C@H]1B(O)O,> 100 µM,> 100 µM
Nc1ncnc2c1ncn2C=C=CCO,> 100 µM,–
C/C(=N\NS(=O)(=O)c1ccc(C)cc1)C(CN1CCCCC1)C(c1ccccc1)c1c(O)c2ccccc2oc1=O (stereo unspecified),> 100 µM,–
[N-]=[N+]=Nc1ccccc1C(=O)N1C(=O)c2ccccc2C(=O)N(C(=O)c2ccccc2N=[N+]=[N-])c2ccccc21,> 100 µM,–
C=C1c2ccccc2C(=O)c2c1c1c(C(=O)OC)c(O)ccc1n2Cc1ccccc1,3.87 µM,–
O=C1/C(=C/c2ccccc2O)N=C(c2ccccc2)N1C1Nc2cc3c(cc2S1)NC(N1C(=O)/C(=C/c2ccccc2O)N=C1c1ccccc1)S3 (stereo unspecified),> 100 µM,–
FC(F)(F)c1ccc(Nc2nc(-c3c(C(F)(F)F)nc4ccccn34)cs2)cc1,11.8 µM,0.06 µM
O=C1NC2ON=C(c3ccccc3)C2C2ON=C(c3ccccc3)N12 (stereo unspecified),> 100 µM,–
CC(=O)OC1COC(n2c(O)c(N=NC(N)=S)c3cc(Br)ccc32)C(OC(C)=O)C1OC(C)=O (stereo unspecified),> 100 µM,–
CNS(=O)(=O)NN(C)S(=O)(=O)c1ccccc1,> 100 µM,–
CN1C(=Nc2ccccc2)SC1=Nc1ccccc1,> 100 µM,–
CN(C)Nc1cc(=O)[nH]c(=O)[nH]1,> 100 µM,–
C=C(C)C(=O)Nc1ccc(NC(C)C)cc1,> 100 µM,> 100 µM
COc1ccc2c(c1)c(=O)oc1cc(OC/C(C)=N\O)ccc12,> 100 µM,> 100 µM
COC(=O)C1(C(=O)OC)Cc2ccc(OC)cc2C2=C1C(=O)c1ccccc1C2=O,39 µM,–
Cc1csc2c(=O)n(C3OC(CO)C(O)C3O)c(=O)[nH]c12 (stereo unspecified),> 100 µM,–
